“And” between values parts separate entries of the source, which are not always exact repeats. Equal values may be shown once. This list was built around the results that the source calls inconclusive (neither active nor inactive); the mix of calls is not that of the screen. For part of these data: Where the call is inconclusive, the potency comes from a doubtful curve fit. Where a structure was tested more than once in an assay, its records may differ in their call. The source made the active and inactive calls. Unless noted, calls come from the whole dose curve; as a rule, active = well fitted curve in the direction sought with a large enough effect in the repeat runs; inconclusive = weak or mixed curves; inactive = no such curve, though single readings can be large; an effect the other way counts as inactive or inconclusive.
Tests used:
[1] = biological target: Peroxisome proliferator-activated receptor gamma (Homo sapiens) (UniProt P37231); test: qHTS assay to identify small molecule agonists of the peroxisome proliferator-activated receptor gamma (PPARg) signaling pathway (AID 743094; active = well fitted activation curve with a large enough effect in the signal ratio in the repeat runs, not every such curve was filed as active; inconclusive = weak or mixed curves, or effect the other way; inactive = no such curve, though single readings can be large or run the other way; the % refers to the signal ratio; note: % is set by controls: 0 for no effect and ±100 for the full control effect); conditions: HEK293H PPARg-UAS-bla, beta-lactamase FRET ratio, 17 h; activation: at 57 µM (top of the series) unless noted
Sequence of UniProt P37231 (P37231 whole entry, looked up): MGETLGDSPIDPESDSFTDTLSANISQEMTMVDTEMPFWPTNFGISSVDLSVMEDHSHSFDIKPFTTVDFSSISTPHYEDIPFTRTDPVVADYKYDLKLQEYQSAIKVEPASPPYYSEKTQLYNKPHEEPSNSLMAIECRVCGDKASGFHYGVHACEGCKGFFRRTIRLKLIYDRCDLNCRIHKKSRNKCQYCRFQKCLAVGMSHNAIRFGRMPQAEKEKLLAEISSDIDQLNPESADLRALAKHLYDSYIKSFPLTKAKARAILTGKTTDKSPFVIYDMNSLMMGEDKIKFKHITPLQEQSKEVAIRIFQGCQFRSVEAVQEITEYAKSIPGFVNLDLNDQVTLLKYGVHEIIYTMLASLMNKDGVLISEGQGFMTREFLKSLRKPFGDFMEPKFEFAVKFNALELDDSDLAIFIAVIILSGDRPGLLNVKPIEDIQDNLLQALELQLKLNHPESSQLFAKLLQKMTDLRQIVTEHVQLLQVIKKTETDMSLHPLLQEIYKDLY
How it was run: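 Agonist activity was taken from a beta-lactamase reporter (FRET substrate, 1 h at room temperature) in HEK293H cells carrying a PPARg UAS-bla construct. Compounds in DMSO were incubated 17 h at 37C after a 5 h cell pre-incubation.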

[2] = qHTS assay to identify small molecule antagonists of the peroxisome proliferator-activated receptor gamma (PPARg) signaling pathway - cell viability counter screen (AID 743194); conditions: PPARg-bla HEK293H viability, CellTiter-Glo luminescence, 17 h; Potency: co-treated with 50 nM rosiglitazone unless noted; activity change, negative = cytotoxicity: at 62.6 µM (top of the series), co-treated with 50 nM rosiglitazone unless noted; note: % is set by controls: 0 for no effect and ±100 for the full control effect; nearly all actives have a fitted effect of over 55% in size
How it was run: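 Cytotoxicity counter screen in PPARg-bla HEK293H cells, same wells as reporter assay. Compounds plus 50 nM rosiglitazone (final) for 17 h at 37 C, then viability read by CellTiter-Glo luminescence.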

[3] = qHTS assay to identify small molecule antagonists of the peroxisome proliferator-activated receptor delta (PPARd) signaling pathway - cell viability counter screen (AID 743213); conditions: PPARd-bla HEK293H viability, CellTiter-Glo luminescence, 17 h; viability change, negative = cytotoxic: at 62 µM (top of the series) unless noted; note: nearly all actives have a fitted effect of over 50% in size; note: potency is the fitted concentration of half-maximal effect; for viability change, negative = cytotoxic: % is set by controls: 0 for no effect and ±100 for the full control effect
How it was run: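 Cytotoxicity counter screen: CellTiter-Glo luminescence read 30 min after addition, in the same wells as the reporter assay. There, PPARd UAS-bla HEK293H cells (3000/well) were treated 17 h at 37 C with compound and 300 nM L165041.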

[4] = qHTS RealTime-Glo MT Cell Viability Assay in HEK293 cells - 40 hour (AID 1224874); conditions: RealTime-Glo luminescence; max response: stronger effect = lower value; note: nearly all actives have a fitted effect of over 50% in size; note: potency is the fitted concentration of half-maximal effect; for max response: % is set by controls: 0 for no effect and ±100 for the full control effect
How it was run: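 Luminescence, which tracks viable cell number through reduction of the prosubstrate to a NanoLuc substrate, was read over continuous 37 C culture. Cells (600/well) were premixed with reagent and rested 5 h before 23 nL of compound in DMSO was pinned.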

[5] = qHTS assay to identify small molecule antagonists of the vitamin D receptor (VDR) signaling pathway - cell viability counter screen (AID 743225); conditions: VDR-bla HEK293T viability, CellTiter-Glo luminescence, 16 h; viability change, negative = cytotoxic: at 61 µM (top of the series) unless noted; note: nearly all actives have a fitted effect of over 50% in size; note: potency is the fitted concentration of half-maximal effect
How it was run: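 Same-well multiplex: following 16 h treatment of HEK 293T cells carrying a UAS-driven beta-lactamase reporter with compound and agonist (3 nM final), and a 2 h FRET substrate step, CellTiter-Glo was added and luminescence read after 30 min.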

[6] = biological target: Thyrotropin receptor (Homo sapiens) (UniProt P16473); test: qHTS assay to identify small molecule agonists of the thyroid stimulating hormone receptor (TSHR) signaling pathway (AID 1224843; calls by dose curve; note: nearly all actives have a fitted effect of over 45% in size; note: potency is the fitted concentration of half-maximal effect); conditions: TSHR-HEK293 cells, cAMP HTRF, agonist mode, 30 min; activation: at 92.4 µM (top of the series) unless noted
Sequence of UniProt P16473 (P16473 whole entry, looked up): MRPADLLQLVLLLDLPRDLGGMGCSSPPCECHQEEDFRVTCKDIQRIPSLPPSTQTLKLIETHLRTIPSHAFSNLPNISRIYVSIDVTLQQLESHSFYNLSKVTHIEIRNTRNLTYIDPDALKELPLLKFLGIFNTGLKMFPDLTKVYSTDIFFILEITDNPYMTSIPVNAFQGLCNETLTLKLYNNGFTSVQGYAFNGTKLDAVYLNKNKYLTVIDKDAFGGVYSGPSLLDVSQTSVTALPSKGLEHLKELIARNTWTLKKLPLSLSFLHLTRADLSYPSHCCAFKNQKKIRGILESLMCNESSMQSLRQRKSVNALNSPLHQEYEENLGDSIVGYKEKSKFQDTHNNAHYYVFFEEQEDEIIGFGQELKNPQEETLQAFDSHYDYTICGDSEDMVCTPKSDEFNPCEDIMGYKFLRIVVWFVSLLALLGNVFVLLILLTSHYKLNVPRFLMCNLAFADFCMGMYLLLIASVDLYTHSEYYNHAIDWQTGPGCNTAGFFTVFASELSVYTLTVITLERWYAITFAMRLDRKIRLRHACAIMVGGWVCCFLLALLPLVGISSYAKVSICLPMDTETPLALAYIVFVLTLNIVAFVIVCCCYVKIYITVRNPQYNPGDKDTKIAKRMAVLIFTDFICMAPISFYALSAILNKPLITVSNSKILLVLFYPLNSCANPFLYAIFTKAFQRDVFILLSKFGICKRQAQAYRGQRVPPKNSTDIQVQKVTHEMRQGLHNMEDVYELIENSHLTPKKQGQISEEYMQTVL
How it was run: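 Agonist-mode screen: TSHR HEK293 cells received test chemicals for half an hour at room temperature, then HTRF cAMP detection reagents for one hour prior to fluorescence measurement. Each chemical ran as a 15-concentration series, triplicated.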

[7] = biological target: Estrogen receptor beta (Homo sapiens) (UniProt Q92731); test: qHTS assay to identify small molecule agonists of the estrogen receptor beta (ER-beta) signaling pathway (AID 1259377; active = well fitted activation curve with a large enough effect in the signal ratio in the repeat runs, not every such curve was filed as active; inconclusive = weak or mixed curves, or effect the other way; the % refers to the signal ratio; note: potency is the fitted concentration of half-maximal effect); conditions: ER-beta-UAS-bla HEK293T, beta-lactamase FRET ratio, 16 h; activation: at 92.4 µM (top of the series) unless noted
Sequence of UniProt Q92731 (Q92731 whole entry, looked up): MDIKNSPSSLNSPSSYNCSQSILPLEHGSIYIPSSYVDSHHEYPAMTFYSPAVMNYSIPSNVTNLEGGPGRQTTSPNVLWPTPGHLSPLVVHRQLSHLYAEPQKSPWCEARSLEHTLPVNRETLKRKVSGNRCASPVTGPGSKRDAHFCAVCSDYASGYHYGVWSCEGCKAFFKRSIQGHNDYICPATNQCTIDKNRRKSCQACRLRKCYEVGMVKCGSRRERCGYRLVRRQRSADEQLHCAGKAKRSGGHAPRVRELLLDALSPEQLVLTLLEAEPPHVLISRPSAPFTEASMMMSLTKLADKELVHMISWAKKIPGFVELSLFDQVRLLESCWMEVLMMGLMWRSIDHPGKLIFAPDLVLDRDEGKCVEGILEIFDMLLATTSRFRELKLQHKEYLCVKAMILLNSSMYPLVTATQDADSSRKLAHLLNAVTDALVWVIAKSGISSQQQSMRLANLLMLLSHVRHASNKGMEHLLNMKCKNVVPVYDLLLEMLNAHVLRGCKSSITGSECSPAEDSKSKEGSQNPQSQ
How it was run: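 qHTS in ER-beta-UAS-bla HEK293T cells: 6 hr settling, then 16 hr compound at 37C, then LiveBLAzer substrate 2 h at RT before fluorescence reading.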

[8] = qHTS assay to identify small molecule agonists of the estrogen receptor beta (ER-beta) signaling pathway - cell viability counter screen (AID 1259380); note: potency is the fitted concentration of half-maximal effect; nearly all actives have a fitted effect of over 30% in size
How it was run: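 Cell viability counter screen: CellTiter-Glo luminescence (30 min, room temperature) measured in the same wells as the beta-lactamase readout, after 16 hr compound exposure at 37C of ER-beta-bla HEK293T cells in 2% charcoal-stripped FBS medium.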

[9] = qHTS assay for small molecule agonists of the p53 signaling pathway (AID 651631; calls by dose curve; note: nearly all actives have a fitted effect of over 15% in size; note: potency is the fitted concentration of half-maximal effect); conditions: HCT-116 p53RE-bla reporter, beta-lactamase FRET ratio, 16 h; activation: at 73.3 µM (top of the series) unless noted
How it was run: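 Testing took place in human colorectal HCT-116 cells with stable p53RE-driven beta-lactamase. After 16 h of compound exposure at 37 °C, a FRET substrate was added and fluorescence recorded 2 h later.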

[10] = qHTS RealTime-Glo MT Cell Viability Assay in HEK293 cells - 32 hour (AID 1224868); note: nearly all actives have a fitted effect of over 50% in size; note: potency is the fitted concentration of half-maximal effect
How it was run: (§1)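 Viability tracked continuously by luminescence as live cells reduce a prosubstrate for NanoLuc; HEK293 cells preincubated 5 h, compound-treated at 37 C, and read at 0, 8, 16, 24, 32 and 40 h.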

[11] = qHTS RealTime-Glo MT Cell Viability Assay in HEK293 cells - 16 hour (AID 1224872); note: nearly all actives have a fitted effect of over 50% in size; note: potency is the fitted concentration of half-maximal effect
How it was run: as §1

[12] = biological target: Estrogen receptor beta (Homo sapiens) (UniProt Q92731); test: qHTS assay to identify small molecule antagonists of the estrogen receptor beta (ER-beta) signaling pathway (AID 1259378; active = well fitted inhibition curve with a large enough effect in the signal ratio in the repeat runs, not every such curve was filed as active; inconclusive = weak or mixed curves, or effect the other way; inactive = no such curve, though single readings can be large or run the other way; the % refers to the signal ratio; note: potency is the fitted concentration of half-maximal effect); conditions: ER-beta-UAS-bla HEK293T, beta-lactamase FRET ratio, 16 h; activity, negative = inhibition: at 92.4 µM (top of the series) unless noted
How it was run: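 ER-beta-UAS-bla HEK293T cells in 2% charcoal-stripped FBS medium treated with compound plus 1nM final 17-beta-estradiol for 16 hr at 37C. Beta-lactamase reporter read by FRET substrate fluorescence after 2 hours at room temperature.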

[13] = qHTS assay to identify small molecule agonists of the estrogen receptor alpha (ER-alpha) signaling pathway in the presence of an antagonist - cell viability counter screen (AID 1259386); note: nearly all actives have a fitted effect of over 30% in size; note: potency is the fitted concentration of half-maximal effect
How it was run: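 Compounds tested at 15 concentrations for 22 h at 37C alongside 10.0nM (final) ICI-182,780 antagonist, in VM7Luc4E2 cells grown in phenol red-free, charcoal-stripped medium. Viability read by CellTiter-Fluor fluorescence after 1 h reagent incubation.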

[14] = qHTS assay to identify small molecule agonists of H2AX - cell viability counter screen (AID 1224847; calls by dose curve; note: nearly all actives have a fitted effect of over 30% in size; note: potency is the fitted concentration of half-maximal effect)
How it was run: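 For this counter screen, overnight-attached CHO-K1 cells received test compounds (15 concentrations, 0.76% DMSO final); 3 hr later at 37C, CellTiter-Glo reagent was added and luminescence recorded after 30 min at room temperature.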

[15] = qHTS RealTime-Glo MT Cell Viability Assay in HEK293 cells - 24 hour (AID 1224886)
How it was run: as §1

[16] = biological target: Peroxisome proliferator-activated receptor delta (Homo sapiens) (UniProt Q03181); test: qHTS assay to identify small molecule antagonists of the peroxisome proliferator-activated receptor delta (PPARd) signaling pathway (AID 743215; active = well fitted inhibition curve with a large enough effect in the signal ratio in the repeat runs, not every such curve was filed as active; inconclusive = weak or mixed curves, or effect the other way; inactive = no such curve, though single readings can be large or run the other way; the % refers to the signal ratio;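 note: cells stimulated with agonist L165041 at 300 nM final during compound exposure; % is set by controls: 0 for no effect and ±100 for the full control effect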); conditions: HEK293H PPARd-UAS-bla, beta-lactamase FRET ratio, antagonist, 17 h; ratio activity, negative = inhibition: at 62 µM (top of the series) unless noted
Sequence of UniProt Q03181 (Q03181 whole entry, looked up): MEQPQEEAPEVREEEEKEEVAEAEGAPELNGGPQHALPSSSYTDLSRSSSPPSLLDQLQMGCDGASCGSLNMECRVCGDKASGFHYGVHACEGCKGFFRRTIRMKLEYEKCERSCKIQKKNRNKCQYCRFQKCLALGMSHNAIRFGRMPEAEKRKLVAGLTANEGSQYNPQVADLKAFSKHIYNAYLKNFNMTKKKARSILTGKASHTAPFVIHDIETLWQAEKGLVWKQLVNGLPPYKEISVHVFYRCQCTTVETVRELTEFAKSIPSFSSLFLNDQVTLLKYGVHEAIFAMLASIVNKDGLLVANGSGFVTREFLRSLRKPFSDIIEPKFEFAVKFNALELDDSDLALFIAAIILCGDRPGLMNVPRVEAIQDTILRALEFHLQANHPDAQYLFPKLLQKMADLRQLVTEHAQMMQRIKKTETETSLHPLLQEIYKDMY
How it was run: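 Agonist L165041 (300 nM final) added with compound to PPARd-bla HEK293H UAS-bla reporter cells; 17 h incubation at 37 C. Read-out: LiveBLAzer FRET substrate, 2 h at room temperature, fluorescence intensity.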

[17] = qHTS assay to identify small molecule antagonists of the progesterone receptor (PR) signaling pathway - cell viability counter screen (AID 1346798); note: nearly all actives have a fitted effect of over 50% in size; note: potency is the fitted concentration of half-maximal effect
How it was run: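 CellTiter-Glo luminescence; PR-UAS-bla HEK293T, 3,000 cells/well; compound + R5020, 16 hr, 37C/5% CO2; 30 min RT before read.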

[18] = biological target: Nuclear receptor subfamily 1 group I member 2 (Homo sapiens) (UniProt O75469); test: Human pregnane X receptor (PXR) small molecule agonists, qHTS assay (AID 1346982); note: potency is the fitted concentration of half-maximal effect; nearly all actives have a fitted effect of over 35% in size
Sequence of UniProt O75469 (O75469 whole entry, looked up): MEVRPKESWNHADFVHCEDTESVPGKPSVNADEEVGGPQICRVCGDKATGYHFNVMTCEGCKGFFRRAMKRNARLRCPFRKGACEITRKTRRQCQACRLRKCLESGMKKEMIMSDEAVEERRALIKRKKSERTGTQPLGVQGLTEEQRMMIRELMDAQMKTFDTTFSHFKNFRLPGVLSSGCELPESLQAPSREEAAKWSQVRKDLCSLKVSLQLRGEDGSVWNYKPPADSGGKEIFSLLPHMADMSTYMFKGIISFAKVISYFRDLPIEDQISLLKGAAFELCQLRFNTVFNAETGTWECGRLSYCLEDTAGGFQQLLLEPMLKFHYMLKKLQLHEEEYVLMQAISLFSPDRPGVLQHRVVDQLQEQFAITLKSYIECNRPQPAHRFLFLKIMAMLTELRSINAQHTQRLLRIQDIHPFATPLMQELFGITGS
How it was run: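 Agonist mode: luminescence from ONE-Glo after 24 h compound exposure at 37C in HepG2 cells carrying hPXR-responsive CYP3A4 luciferase, plated in charcoal-stripped serum medium 5 h beforehand.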

[19] = qHTS assay for identifying genotoxic compounds that show differential cytotoxicity against isogenic chicken DT40 cell lines with known DNA damage response pathways - Rad54/Ku70 mutant cell line (AID 743015); conditions: DT40 Rad54/Ku70 mutant viability, CellTiter-Glo, 40 h; activity change, negative = cytotoxicity: at 66.8 µM (top of the series); note: potency is the fitted concentration of half-maximal effect; nearly all actives have a fitted effect of over 60% in size
Tags give direction and shape of the fitted curve or compound fluorescence and quenching.

CS(=O)(=O)Cl
Potency [1]: inactive
Potency [2]: inactive
viability change, negative = cytotoxic [3]: inconclusive: 8.21% [cytotoxic] [at 80.4 µM]
max response [4]: inactive: -0.619%

CC(C(=O)c1ccccc1)N(C)C (stereo not given)
Potency [3]: inconclusive: 0.335 µM [rising, full curve, poor fit]
Potency [5]: inconclusive: 0.535 µM [cytotoxic, single point]
Potency [6]: inconclusive: 26.6 µM [activator, partial curve]
Potency [7]: inconclusive: 33.5 µM [falling, single point]
Potency [8]: inconclusive: 33.5 µM [cytotoxic, single point]

CCC1(c2ccccc2)CCC(=O)NC1=O (stereo not given)
Potency [9]: inactive
Potency [10]: inactive

O=C(O)C(F)(F)C(F)(F)C(F)(F)C(F)(F)C(F)(F)F
Potency [6]: inactive
Potency [11]: inactive
Potency [7]: inactive
Potency [12]: inactive
Potency [13]: inconclusive: 30.6 µM [cytotoxic, single point]

Oc1cccc(-c2ccccc2)c1
Potency [14]: inconclusive: 127 µM [cytotoxic, partial curve, poor fit]
Potency [10]: inconclusive: 54.9 µM [cytotoxic, single point]
Potency [11]: inconclusive: 54.9 µM [cytotoxic, single point]
Potency [4]: inconclusive: 54.9 µM [cytotoxic, single point]
Potency [15]: inconclusive: 54.9 µM [cytotoxic, single point]
Potency [7]: active: 17.2 µM
Potency [12]: inconclusive: 54.5 µM [inhibitor, partial curve]

CC(=O)[O-].CC(=O)[O-].CC(=O)[O-].[Cr+3]
Potency [3]: inactive
Potency [13]: inconclusive: 76.6 µM [cytotoxic, single point]

CC(N)=S
Potency [2]: inactive
Potency [3]: inactive
Potency [5]: inconclusive: 0.0012 µM [cytotoxic, full curve, poor fit]
Potency [14]: inactive
Potency [10]: inactive
Potency [7]: inactive
Potency [13]: inactive

Cc1ccc(C(=O)Cl)cc1
Potency [13]: inactive

CC(CCc1ccccc1)NC(C)C(O)c1ccc(O)cc1 (stereo not given)
Potency [9]: inconclusive: 5.96 µM [rising, full curve, poor fit]
ratio activity, negative = inhibition [16]: inconclusive: -9.67%
Potency [10]: inactive
Potency [8]: inconclusive: 2.98 µM [cytotoxic, full curve, poor fit]
Potency [13]: inactive

O=c1c2ccccc2c(=O)c2c1cc(Cl)c1[nH]c3c([nH]c12)c(Cl)cc1c(=O)c2ccccc2c(=O)c13
Potency [9]: inconclusive: 24.3 µM [falling, partial curve]
Potency [3]: inconclusive: 12.3 µM [cytotoxic, single point]
Potency [5]: inconclusive: 2.19 µM [cytotoxic, single point]
Potency [14]: inactive
max response [4]: inactive: 12.8%

O=[N+]([O-])c1ccccc1-c1ccccc1
Potency [6]: inactive

NC(=O)CCl
Potency [7]: inactive
activity, negative = inhibition [12]: inconclusive: -40.3%
Potency [13]: inconclusive: 43.3 µM [cytotoxic, partial curve, poor fit]
Potency [17]: inconclusive: 38.6 µM [cytotoxic, partial curve, poor fit]

C[N+](C)(C)Cc1ccccc1
Potency [1]: inactive
Potency [10]: inconclusive: 54.9 µM [rising, single point]
Potency [17]: inconclusive: 68.6 µM [rising, single point]
Potency [18]: inconclusive: 68.2 µM [activator, single point]

CCCCSP(=O)(SCCCC)SCCCC
Potency [19]: inconclusive: 54.5 µM [cytotoxic, partial curve]
Potency [3]: inconclusive: 0.478 µM [cytotoxic, single point]
Potency [16]: inactive
Potency [6]: inconclusive: 13.4 µM [inhibitor, full curve] and inconclusive: 6.86 µM [inhibitor, full curve]
Potency [14]: inconclusive: 127 µM [cytotoxic, partial curve, poor fit]
Potency [10]: inconclusive: 24.5 µM [cytotoxic, partial curve, poor fit]
Potency [11]: inconclusive: 60.2 µM [cytotoxic, partial curve, poor fit]
Potency [17]: inactive
Potency [18]: inconclusive: 15.4 µM [activator, partial curve, poor fit]

COc1cc(CC#N)cc(OC)c1OC
ratio activity, negative = inhibition [16]: inconclusive: 13.4% [fluorescent]
activity, negative = inhibition [12]: inconclusive: 3.13% [at 42.5 µM]

[Cl-].[Cl-].[Cl-].[Fe+3]
Potency [4]: inconclusive: 3.89 µM [cytotoxic, single point]

COc1ccc(OC)c(C=O)c1
Potency [14]: inactive
Potency [10]: inconclusive: 54.9 µM [cytotoxic, single point]
Potency [11]: inconclusive: 54.9 µM [cytotoxic, single point]
Potency [15]: inconclusive: 54.9 µM [cytotoxic, single point]
Potency [7]: inactive
Potency [17]: inactive

CC(C)(C)C(=O)Cl
Potency [2]: inactive
Potency [7]: inactive
Potency [12]: inactive

CN1CC[C@]23c4c5ccc(O)c4O[C@H]2[C@@H](O)C=C[C@H]3[C@H]1C5
Potency [5]: inactive
Potency [14]: inactive
